Experimental data as given in PubChem BioAssay AID1460 (National Center for Advancing Translational Sciences (NCATS), 2008).
About 5,800 (2.1%) of roughly 270,000 compounds were called active. Inconclusive results, whose numbers are uncertain, are shown with a selection of clear calls. The call rests on the fitted dose curve; in most records, active means well fitted inhibition curve with a large enough effect; inconclusive means small, poorly fitted or top-dose-only effect; inactive means flat fitted curve, though single readings scatter. Potencies of inconclusive entries are doubtful fits and often do not repeat.

The compounds below were run against Microtubule-associated protein tau (Homo sapiens) (UniProt P10636) (assay: qHTS for Inhibitors of Tau Fibril Formation, Thioflavin T Binding). Details: recombinant tau K18 P301L, heparin-induced fibrillization, ThT fluorescence; series mostly up to 57.4 µM.
UniProt P10636, sequence (P10636 whole entry, looked up): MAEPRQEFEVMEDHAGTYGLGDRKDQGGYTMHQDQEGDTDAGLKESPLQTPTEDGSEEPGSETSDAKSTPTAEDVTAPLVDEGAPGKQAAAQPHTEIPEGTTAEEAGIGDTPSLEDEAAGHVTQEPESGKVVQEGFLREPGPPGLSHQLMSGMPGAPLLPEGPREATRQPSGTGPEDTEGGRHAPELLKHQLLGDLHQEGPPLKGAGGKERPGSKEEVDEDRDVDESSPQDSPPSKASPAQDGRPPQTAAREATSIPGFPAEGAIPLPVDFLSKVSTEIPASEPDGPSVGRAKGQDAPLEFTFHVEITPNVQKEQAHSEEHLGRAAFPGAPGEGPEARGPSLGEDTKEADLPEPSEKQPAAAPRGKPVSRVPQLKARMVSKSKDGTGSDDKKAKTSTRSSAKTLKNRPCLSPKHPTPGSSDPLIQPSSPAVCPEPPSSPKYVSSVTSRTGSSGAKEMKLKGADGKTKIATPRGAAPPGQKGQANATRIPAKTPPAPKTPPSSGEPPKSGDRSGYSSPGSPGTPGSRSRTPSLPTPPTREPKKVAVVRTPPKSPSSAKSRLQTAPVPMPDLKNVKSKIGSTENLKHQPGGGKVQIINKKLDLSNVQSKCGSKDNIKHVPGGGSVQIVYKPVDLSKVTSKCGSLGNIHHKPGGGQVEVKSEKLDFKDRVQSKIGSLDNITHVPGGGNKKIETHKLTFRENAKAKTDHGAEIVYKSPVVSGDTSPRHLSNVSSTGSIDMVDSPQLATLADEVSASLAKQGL
Procedure, shortened: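 Fibril formation assay: tau K18 P301L at 15 uM with trace Alexa 594 label, heparin inducer 20 uM, pH 7 sodium acetate buffer, 37 C for 6 hr; endpoint ThT signal.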
Further: nearly all actives have a fitted effect of over 55% in size.
Potency means the concentration at half of the fitted maximal effect; tags describe the fitted curve by direction and shape.

| Compound | Potency |
| --- | --- |
| CCOc1ccc(C(=O)OCc2cc(=O)n3cc(C)sc3n2)cc1 | inactive |
| O=C(NCC1CCCO1)c1cccc(N2CCCC2=O)c1 (configuration not stated) | inactive |
| COc1cccc(N2CCN(Cc3nc4scc(-c5ccccc5)c4c(=O)[nH]3)CC2)c1 | inconclusive: 8.91 µM [inhibitor, partial curve, poor fit] |
| O=C(CSc1nc2ccc([N+](=O)[O-])cc2s1)c1ccc2ccccc2c1 | inconclusive: 22.4 µM [inhibitor, partial curve] |
| O=[N+]([O-])c1cc(/C=N\Nc2nc(-c3ccccc3)cs2)ccc1O | active: 3.16 µM |
| Cc1nn(C(=O)c2ccccc2)c(C)c1S(=O)(=O)N1CCCCCC1 | inconclusive: 25.1 µM [inhibitor, partial curve] |
| CCCCc1c(C)c(C#N)c2nc3ccccc3n2c1Cl | inconclusive: 7.94 µM [inhibitor, full curve] |
| CCOC(=O)Cc1cc(=O)n2[nH]cc(-c3cccc(Br)c3)c2n1 | inconclusive: 17.8 µM [inhibitor, partial curve] |
| COCCCn1c(SCc2nnc(-c3ccc(OC)c(OC)c3)o2)nc2ccccc2c1=O | inactive |
| CC1CN(c2snnc2C=C2C(=O)OC(C)(C)OC2=O)CC(C)O1 (configuration not stated) | inconclusive: 31.6 µM [inhibitor, partial curve] |
| CCOc1ccc(CNC(=O)c2sc3ncnc(N(C)C4CCCCC4)c3c2C)cc1 | inconclusive: 28.2 µM [inhibitor, single point] |
| O=C(Nc1sc2c(c1C(=O)O)CCCCC2)c1ccccc1F | inconclusive: 15.8 µM [inhibitor, partial curve] |
| C/C(=N/NC(=O)c1ccccn1)c1c[nH]c2ccccc12 | inconclusive: 10 µM [inhibitor, partial curve] |
| CCc1nc(SCC(=O)NNC(=O)C(C)C)c2ccccc2n1 | inconclusive: 20 µM [inhibitor, partial curve, poor fit] |
| N#CCn1nnc(-c2ccc3c(c2)OCO3)n1 | inconclusive: 20 µM [inhibitor, single point] |
| CCn1cc(C(=O)NCc2ccccc2Cl)cn1 | inactive |
| O=C(Nc1ccc(Cl)c(-c2nc3ccccc3[nH]2)c1)c1ccc2c(c1)OCO2 | inconclusive: 0.891 µM [inhibitor, full curve] |
| Cc1ccc(C(=O)n2nc(-c3cccnc3)nc2N)cc1 | inconclusive: 12.6 µM [inhibitor, partial curve] |
| COc1ccc(C2/C(=C(/O)c3ccc(OC(C)C)cc3)C(=O)C(=O)N2CCCN2CCOCC2)cc1 (configuration not stated) | inconclusive: 28.2 µM [inhibitor, partial curve] |
| Cc1ccc(N=C2NC(=O)/C(=C\c3ccsc3)S2)c(C)c1 | inactive |
| Oc1ccccc1N=Nc1ccccc1O | inconclusive: 20 µM [inhibitor, partial curve] |
| Cc1cc(NC(=O)c2ccco2)ncc1NC(=O)Cc1ccccc1 | inconclusive: 15.8 µM [inhibitor, partial curve] |
| COc1ccc(CNC(=O)CSc2ncc(S(=O)(=O)c3ccc(Br)cc3)c(=O)[nH]2)cc1 | inactive |

| Compound | Potency |
| --- | --- |
| Cc1cc2ccccn2c1C(=S)NC(=O)c1ccccc1 | active: 15.8 µM |
| COc1ccc(S(=O)(=O)NCC(c2ccc(N(C)C)cc2)N2CCOCC2)cc1 (configuration not stated) | inconclusive: 25.1 µM [inhibitor, partial curve] |
| COc1ccc(-c2[nH]c3ccccc3c2SCCNC(=O)c2ccc(S(=O)(=O)N(C)C)cc2)cc1 | inactive |
| CC1(C)CC(=O)C2=C(C1)OC(N)=C(C#N)C21C(=O)N2CCCc3cccc1c32 (configuration not stated) | inactive |
| O=C(COC(=O)c1cnccn1)c1ccc([N+](=O)[O-])cc1 | active: 15.8 µM |
| COc1ccc(-n2c(-c3ccc(F)cc3)cnc2SCC(=O)NCc2ccco2)cc1 | inconclusive: 39.8 µM [inhibitor, single point] |
| COC(=O)c1cccc(Nc2nn3c(=O)c4cc5c(cc4nc3s2)OCO5)c1 | inconclusive: 3.98 µM [inhibitor, partial curve] |
| CCOc1ccccc1Nc1nnc(SCC(=O)Nc2ccc3[nH]c(=O)[nH]c3c2)s1 | inconclusive: 15.8 µM [inhibitor, partial curve] |
| COc1cc2c(cc1OC)-c1cc(Nc3ccc(N(C)C)cc3)nc(=O)n1CC2 | inconclusive: 5.62 µM [inhibitor, partial curve] |
| Cc1cccc(NC(=S)NNC(=O)c2ccc3c(c2)OCO3)c1 | inconclusive: 25.1 µM [inhibitor, single point] |
| COc1ccc(C(=O)/C=C/C(=O)N(CC(=O)NC2CCCCC2)Cc2ccccc2)c(O)c1 | inconclusive: 20 µM [inhibitor, partial curve] |
| COc1cc(/C=N/NC(=S)Nc2cccc(S(=O)(=O)N(C)C)c2)ccc1O | inconclusive: 3.98 µM [inhibitor, partial curve] |
| Cc1[nH]n(-c2ccccc2)c(=S)c1C=Nc1ccc([N+](=O)[O-])cc1 | active: 25.1 µM |
| Cc1ccccc1C(=O)Nc1ccc(C(=O)OCc2cc(=O)n3nc(C(C)C)sc3n2)cc1 | inactive |
| O=C(NC(=S)NNC(=O)c1ccccc1[N+](=O)[O-])c1ccccc1 | inconclusive: 17.8 µM [inhibitor, single point] |
| COc1ccc(C(=S)N2CCOCC2)cc1OC(=O)c1cc([N+](=O)[O-])c(C)c([N+](=O)[O-])c1 | inconclusive: 39.8 µM [inhibitor, partial curve, poor fit] |
| COc1ccc(-c2cc(C(F)F)n3ncc(C(=O)Nc4ccc(C(=O)N5CCOCC5)cc4)c3n2)cc1 | inactive |
| CCOC(=O)C1CCCN(c2ccc(NC(=O)c3snc4c(=O)[nH]c(C)nc34)cc2)C1 (configuration not stated) | inconclusive: 2.82 µM [inhibitor, full curve] |
| CCOc1ccc(NC(=O)CN2C(=O)C3CCCN3C2=O)cc1 (configuration not stated) | inactive |
| CCOC(=O)C(NC(=O)c1cccc(Cl)c1)(Nc1sc2c(c1C(N)=O)CCC2)C(F)(F)F (configuration not stated) | inconclusive: 25.1 µM [inhibitor, partial curve] |
| CC1CCc2c(sc(/N=C/N(C)C)c2C#N)C1 (configuration not stated) | inconclusive: 12.6 µM [inhibitor, partial curve] |
| CCN1CCN(c2cc(C)c3cc(NC(=S)N4CCN(c5ccccc5F)CC4)ccc3n2)CC1 | inconclusive: 15.8 µM [inhibitor, partial curve] |
| COc1ccc(CNC(=O)c2cc3cccc4c3n2CC(C)S4)c(OC)c1 (configuration not stated) | inactive |

| Compound | Potency |
| --- | --- |
| Cc1cc(C(=O)N/N=C/c2cc([N+](=O)[O-])ccc2O)c2ccccc2n1 | inconclusive: 25.1 µM [inhibitor, single point] |
| COc1ccc(C(=O)Oc2cc(-c3ccc4c(c3)OCO4)cc(=O)c3c(C)oc(C)c23)cc1 | inconclusive: 35.5 µM [inhibitor, single point] |
| O=C(/C=C/c1ccc(F)cc1)NC(=S)N1CCN(c2ccccn2)CC1 | inconclusive: 8.91 µM [inhibitor, partial curve] |
| COc1ccc(CCNc2ccc(C(CC(N)=O)NC(=O)c3ccc(Br)cc3)cc2[N+](=O)[O-])cc1 (configuration not stated) | inconclusive: 3.55 µM [inhibitor, full curve] |
| CCc1ccc2[nH]c(=O)c(CN(CCN(CC)CC)C(=O)NC3CCCCC3)cc2c1 | inactive |
| COc1ccc(-c2nnc(-c3ccc(N)cc3)o2)cc1 | inconclusive: 15.8 µM [inhibitor, partial curve] |
| COc1ccc(C(=O)/C=C/C(=O)N(CC(=O)NC2CCCCC2)CC2CCCO2)c(O)c1 (configuration not stated) | inconclusive: 10 µM [inhibitor, partial curve, poor fit] |
| CCOC(=O)/C(=N\Nc1cc(Cl)ccc1Cl)N1CCN(CC)CC1 | inactive |
| CCOc1ccc2nc(NC(=O)c3cc(=O)c4cc(C)cc(C)c4o3)sc2c1 | inconclusive: 12.6 µM [inhibitor, partial curve] |
| COC(=O)CCCC1=CC2=C(c3ccccc3)C(=O)C(C)(OC(=O)C3CCCC3)C(=O)C2=CN1c1ccc(OC)cc1 (configuration not stated) | inconclusive: 35.5 µM [inhibitor, single point] |
| COc1ccc(NC(=O)c2cn3c4c(ccc(Cl)c4c2=O)OC(C)C3)cc1OC (configuration not stated) | inactive |
| Cc1cccc(NC(=O)c2ccc(N(C)C3CCCCC3)c([N+](=O)[O-])c2)n1 | inconclusive: 14.1 µM [inhibitor, partial curve] |
| Cc1ccc(NC(=O)CC(C)S(=O)(=O)c2ccc3c(c2)NC(=O)CO3)cc1C (configuration not stated) | inactive |
| COc1ccc(-c2noc(-c3cccc(OC)c3OC)n2)cc1 | inconclusive: 2.82 µM [inhibitor, full curve, poor fit] |
| COc1ccc(NC(=O)Nc2ccc(F)cc2)c(C)c1 | inactive |
| COc1ccc(Nc2cc(C(=O)NCc3ccccc3)c3ccccc3n2)c(OC)c1 | inconclusive: 6.31 µM [inhibitor, partial curve, poor fit] |
| COc1ccc(/C=C/C(=O)c2ccc(O)cc2O)cc1 | active: 11.2 µM |
| CC(=O)N(C(C)=O)n1c(/C=C/c2ccc([N+](=O)[O-])cc2)nc2ccccc2c1=O | inconclusive: 3.16 µM [inhibitor, full curve] |
| COc1ccc2c(CNCCc3ccccc3)c(C(=O)O)n(Cc3cccc(F)c3)c2c1 | inactive |
| CC(C)(C)N(Cc1ccccc1)C(=O)CSc1nc2ccccc2c(=O)[nH]1 | inconclusive: 2.24 µM [inhibitor, partial curve] |
| O=C(N/N=C1\CCc2ccccc21)c1ccccc1Cl | inconclusive: 12.6 µM [inhibitor, single point] |
